# In all, about 33,000 sequences were measured (“E-score (-0.5 to 0.5)”: median about -0.04, highest 2% from about 0.36 on). This is one part of the list.
# Biological target: T1, Hmlalpha2 (UniProt P0CY09)
# T1 sequence: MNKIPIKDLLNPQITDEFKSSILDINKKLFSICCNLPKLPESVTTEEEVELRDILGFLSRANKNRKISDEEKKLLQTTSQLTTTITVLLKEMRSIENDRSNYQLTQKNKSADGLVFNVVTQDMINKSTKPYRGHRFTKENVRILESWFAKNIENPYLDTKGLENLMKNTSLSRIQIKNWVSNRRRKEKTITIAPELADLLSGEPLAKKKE
# Assay: PBM E-score (8-mer binding enrichment) (E-score (-0.5 to 0.5)); higher = stronger / more preferred TF binding; most listed sequences are background and not binding sites
# Conditions: protein concentration: 200 nM; construct: GST-full length
# Method: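 Universal 'all 10-mer' protein binding microarrays (Agilent AMADID 015681) probed with GST-tagged S. cerevisiae TFs (full-length or DBD) made by in vitro transcription/translation (PURExpress), about 100-200 nM. Bound TF was detected with fluorescent anti-GST. Each ungapped 8-mer (which stands for itself and its reverse complement) is scored by the PBM enrichment score (E-score), a modified Wilcoxon-Mann-Whitney statistic from -0.5 to +0.5, computed with the Universal PBM Analysis Suite. Scale: above 0.35 generally sequence-specific binding.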
row,Sequence,PBM E-score
1,CATATGGC,-0.118
2,ATTTGAGG,-0.169
3,GTTGGTGA,-0.0661
4,GGTCACTA,-0.204
5,CGGGACAA,-0.193
6,ACTAATAT,0.095
7,AACGCAAC,0.299
8,ATCGGTCG,-0.0664
9,GGTCTACA,0.328
10,GTAAATGA,0.324
11,AAAGCTCG,0.00761
12,GGCACCAA,-0.00607
13,ATTCGGAC,0.173
14,GATGTAGA,0.314
15,AGGCACCT,-0.269
16,AGGTTGCC,-0.267
17,AATCTGCT,-0.0528
18,CTCAATCA,0.0115
19,CCTGGCCC,-0.351
20,ACGTAACG,0.161
21,CTAAGTAA,0.251
22,AGCGCAAG,-0.155
23,AGTGGGTC,-0.265
24,CTCCGTCA,-0.0949
25,GGTGCCAC,-0.254

row,Sequence,PBM E-score
1,TAATGATA,0.234
2,AAAATGAT,0.127
3,ACGCTCTA,-0.0608
4,CTTTCCCA,-0.144
5,CGCTGCGA,-0.117
6,AGCGTAAC,0.19
7,CCGTTACG,0.0618
8,GACGAGTC,-0.0709
9,AAAGTTGG,0.0805
10,ACGCCGAT,0.0555
11,GAGCGTAA,0.202
12,AGCCAACT,-0.00124
13,AACTGATT,-0.00593
14,GGAAGACC,-0.337
15,GCAAAGGC,-0.257
16,CACATAAG,0.117
17,AGTATACT,0.043
18,CACCGGGA,-0.208
19,ATTAGAAA,0.0551
20,GTAGAAGA,-0.00977
21,CATTTAGC,0.0542
22,AATACGAA,0.216
23,CCGCCCTA,-0.0665
24,AACAGCTA,0.115
25,GAAGAGAC,-0.0584

row,Sequence,PBM E-score
1,CACAACCC,-0.0761
2,CCATATAA,-0.0218
3,AGCGTGCG,-0.122
4,TAGGGACA,-0.107
5,AAGAAGGG,-0.355
6,GGAAGAAA,-0.114
7,GCCAGGAC,-0.269
8,AAAATATA,0.0897
9,AGTTTGGA,0.169
10,ATGCAAGG,-0.246
11,CCCTTTGA,-0.159
12,ATATAACC,-0.0903
13,GCCGCACA,-0.0781
14,GCAGCCCA,-0.281
15,AAACCTAG,0.0544
16,GATTTGCC,-0.0286
17,CTATAAAG,-0.181
18,AATCAGGT,0.158
19,GAGCCAAA,-0.0699
20,TCAACTCA,0.0758
21,AATCTCCC,-0.2
22,AAGTTCAA,0.153
23,AGCTACCA,-0.00947
24,AGCTGTTC,-0.209
25,CTGTGGCC,-0.164

row,Sequence,PBM E-score
1,CAATTAAG,0.107
2,AAACAGGT,0.0742
3,GACCGTGA,-0.0698
4,CACCCATC,-0.214
5,AAAGCAAA,0.123
6,CGTACAAC,0.256
7,ATGCACGC,0.133
8,CAAGAAAC,0.13
9,ACATCAGT,0.0417
10,ATGCGGGC,-0.0538
11,CGGTGTTA,0.253
12,ACATTTCG,0.0602
13,GTCCTGCA,-0.11
14,CCCCCCGA,-0.394
15,ATGGTCCG,-0.0121
16,GAAAGTTA,0.183
17,AATAAACT,0.102
18,GACCTATC,-0.245
19,CATGAGCG,-0.0447
20,GCCCTAGA,-0.28
21,AAGCACGC,0.0885
22,ATGAGTAG,-0.0182
23,ACGTTGTC,0.155
24,CGAGACAG,0.0308
25,ACCAGGCT,-0.121

row,Sequence,PBM E-score
1,GGTTGGAA,-0.289
2,TGCCCACA,-0.101
3,CAACCCAA,0.0834
4,GGCCACTA,-0.112
5,GCCCCGTA,-0.14
6,TCCTACAA,0.171
7,AGTCGCAG,-0.18
8,ATTCCATA,-0.0528
9,AAACTCAG,0.13
10,CGCCCGAA,-0.201
11,CCACCATC,-0.318
12,CCTCAGTC,-0.311
13,CTTCAACA,0.341
14,GATGAAAA,0.0728
15,AGGGCGCG,0.00904
16,AGCAATTC,-0.139
17,CTTCTTAA,0.169
18,AAATGCTC,0.0399
19,TGGGCTAA,-0.165
20,AAGTCGAC,0.0896
21,AGGAGCCC,-0.295
22,CCTCGGCG,-0.124
23,AACGGTCG,-0.0379
24,AAAACACA,0.333
25,AAAAAAAG,-0.0733

row,Sequence,PBM E-score
1,CAACGGTG,-0.155
2,ATGCAGCA,-0.138
3,CACCGCGA,-0.194
4,ACGTCAAT,0.0383
5,AAAATTTC,-0.112
6,ACGGGGTG,-0.115
7,AGATTGGG,-0.0423
8,CCTTCACC,-0.223
9,TGAATTAA,0.256
10,ACCGTCCA,-0.166
11,CAACTATA,0.131
12,AGGAATTC,-0.167
13,AAAACGCT,-0.0306
14,ACGAGCCG,0.153
15,CGACGGCC,-0.00229
16,ACAAGCTA,0.182
17,ACTAGGTC,-0.0601
18,GATCGCCC,-0.0101
19,ATTACCCA,0.211
20,AATGTTTA,0.314
21,CGATTTAC,0.176
22,TCTTATCA,0.245
23,AAAGTGCA,-0.0584
24,ACTGCCCT,-0.238
25,ACCCATAC,-0.0068

row,Sequence,PBM E-score
1,AAAAAGGC,-0.0813
2,CAAACGGA,-0.11
3,ACACTGCG,0.0109
4,CTACCTCC,-0.143
5,AAGGAGGG,-0.179
6,AGACACGC,0.147
7,AATGGTAT,0.115
8,GAGACGCC,-0.324
9,GTAACTCA,-0.0411
10,GACTTGTA,0.189
11,TCCAGACA,-0.278
12,AGCCCAGG,-0.274
13,CCTCCTCA,-0.184
14,AACTGAGT,0.0172
15,ACAGCTGT,-0.0242
16,TAGCTACA,0.203
17,TAGCGAAA,-0.106
18,TCGGCCGA,-0.231
19,ATCAAAGC,-0.206
20,ATGTGATG,0.0776
21,TCACCGGA,-0.133
22,GGAGAAAC,-0.183

# From the supplement of paper PMC3334620
